In the RNAGym collection of RNA variant scans (doi:10.7554/elife.90254):
The source gives no read counts; variants with many changes may rest on few reads.

B1: LINE1-full (parent)
chain: UACGUAGGUGGUUUUCCCCUGAUAGUGCUAAGGGGGCCUGGAAGUUUGGACUGGGCAGAGCUCAACACAGCGUGGCAAAGUGGCUGUGGCUAGACUGCCUCUCUGGAUUCCUCGUCACUCAGCAGGGCAUCUCUGAGAGAAAUGCC

Variants of: B1
Experiment: self-cleavage, relative activity (ratio to wild type); higher = more cleavage; in vitro, sequencing; the parent is a self-cleaving ribozyme

Variant	self-cleavage
G4A G32A G58A	0.06
G4A U9C A64U A69G	0.29
U5C U13G U39C U81A U108G A124G	0.61
U5C G36A U100C	0.74
U5C U13C G35U	0.73
A6G A43G U62C	0
U5C U62G A77G	0.21
U5A U14C U15C U26G U100A	1.23
U5C A67G U73C C116U U132C A141U	0.21
U5C U15A A69G	0.36
G4C U39A U52C	1.38
U5C U62A A77G A140U	0.08
G4A G93A U143C	0.05
G4A U45G G72A U81C	0.48
U5C U26G U47A A121U	1.16
U5A U26A A141G	0.17
G4U U14C A42G A43U A78G	0.39
A6G A50G U112C A129U A138G	0
U5A A64U A79C U143C	0.9
U5C U20C A22G G41A U100C	1.79
A6G A57G A78G A140G	0.38
U5C U13A G35U	1.15
A6G G74A U85C	0.37
U5A G34A U130C A138U	0.81

Variant	self-cleavage
A6G U12C A59U U73A	0.79
A6G G10A U39A U108A	0.63
U5A U45A U81G	0.64
U5C C66U U73C C133A	0.11
U5A U26C G34A A142G	1.22
A6G A31G A59U A107G G114U C118A A141G	0.96
U5A A59U C90U	0.01
U5A U23C U29C G58U A121G A129G A136U	1.21
U5C A121U U130C	1.47
U5C U20G G36A A78G A138G A140U	1.93
U5C C19U G48A A57G U115A G127A	0.69
A6G G44A U46C	0.6
U5C U39A U46C U73C A92G A136U	2.51
U5C A50G A69U A141G	0.25
A6G G32A U112C G114A	0.84
U5C U15A U29A U130C	0.84
U5C A64G U87C	0.99
G4A U109C A121G A124G	2.04
U5A U47C U130C A140G C145U	0.75
U5C U39G A65U A79G	0.23
U5A U73A A124G A140G	0.12
A6G U9A U13C	1.31
A6G U13C A50G C90U G126A U130C	0.18
U5A A50G U85A G105A C118A G144A	0.07

Variant	self-cleavage
U5A U12C A136G	0.66
U5C A24U U62C	0.48
U5C C68U U85C	0.15
G4A U13C U14A	0.49
U5A U108A A129G	0.77
U5C A77U U108C	1.12
U5C U15C U26C A65G	0
U5C U12A U81C C131U	2.76
U5C U14C U96C G126U U134C A142G	0.38
A6G G36A G44U A57U A78G U87A C118U	0.07
U5C U13C C37A A69U A141G	0.09
U5C C37U G49A A107G	0
U5C U26A G36C A67G	0.68
G4A U87A C128A	0.11
G4A U62G A136U	0.18
U5C U52A A59G A142G	0
A6G G54U G75A U108C	0.81
U5C A78G U87C U96C A141G	0
U5C A136G A140G	2.51
U5C C28U U109A U115C	0.79
U5C U39A U73A	1.12
G4A G27U U52A A57C A77G C103U	0.06
A6C U13C A78G U119A	1.68
A6G A22G G75A U109C	0.34

Variant	self-cleavage
U5A A124U A136G	1.27
U5A U108C U115C	1.08
U5C U13C U47C A77G A140G	1.53
U5C U39C U46C U85A	0.23
A6G A65G A94U	0.15
A6G A50U A64U A142G	0.58
U5C U13C A121C	1.06
A6G A64G U132A	0.52
G4A U52C A65G A78G	0
U5C A6U U15C G72A	0.88
A6G A69U A141G	0.08
U5C C38U A57G A69G U81A	0.48
U5C U12C U13C A107G A138G	0.8
A6C G32U G93U U102C A141G	0.09
G4C A78G C113U	0.05
U5C U13C U102C A136G	0
A6G A30G U73C U109C C118U	0
U5A A31U A57U U81A	0.24
U5C U96A A117U A138U	0.48
A6G G32A A138U	0.9
U5A G8A A57G A64G	0.51
A6G A78G U102C A141G	0.38
U5A U39C C61U U73C U112C A136G	0.08
U5C A57G U85A	0.14

Variant	self-cleavage
U5C A6G U47G U73A U102C C103A U115C	1.31
U5C U12C G75C A117G	0.8
G4A G32U G34A A43U G82A U115A C128G A140G	0.44
A6G A94G U108C U119A	0
U5C G21A U26C U109A U132C	2.45
U5C A79G A117U	1.26
U5G C38U A57U A78G A79G	0.22
G4A U45C A65G A117U	0.06
U5C A6U U100C G126A	1.1
U5C U85A U96C A121U A140G	0.23
A6G U9C A141G	0
U5A G83A A140G	0.64
U5C A30U A107G U108A	0.68
U5A U62C C90A	0.04
A6G A79G A140G	0.68
G4A U46C A78G C90U G122U	0.03
A6G A77G U109C A142G	0
U5C U46G A141G	0.8
A6G U13C A78G U91C A94U U132A	0
G4A C61U U104A	0.2
U5C A24U U29C U45A A94G A140G	0.77
A6G U9C A57G A129C	0.57
U5C A6G A107G	2.12
U5C U73A U85C A136U	0.32

Variant	self-cleavage
U5A U14A A79G	2.63
G4U A69U U109A	0.07
G4U C68U A107G	0.32
U5C U104A A124C A129G	0
U5C U20A U26A A117G	1.84
G4A G10A U12C A57G	0.14
U5C A59G A140G	0
G4C U23C U108C U134A	1.06
U5A C19A U39A G49A A50G C90U A138G	0.1
U5C A69U A107U	0.15
U5C U20C U130C	1.02
U5C A65G A141G	0
U5C G53U U112C	1.39
U5C A30G U96C U100C A117U	0.92
U5C U81C U108C G125A A140G	2.16
A6G A22G C38A U104A	1.05
U5A A31U A142G	1.53
U5C A22U U47A	0.91
U5C U9G A22G C37G A65G G105A	0.6
U5C A6G U73A	0.58
U5C U47A A79U A124U	1.71
U5C U23C A77G	0.81
U5A A31U A59U A124U	0.69
A6G C18U A57G U112C	0.95

Variant	self-cleavage
A6G G21A A79G A94G U100C	0
A6G A31U A42G U73C U87A	0.25
U5C U26C A43G	1.05
U5C U14C A42G	1
U5G U12C A124U	0.67
A6C U45C U115A A142G	1.56
U5A A42G U134C	0.88
U5G U52A A77G C90U U112C	0.1
U5C C66U A117G A140G	0.23
A6G U13C A78G A140G	0.48
A6G A57G G97A	0.19
G4U A69U U130C	0.19
U5A U12C A79C U81C G82A	0.48
U5C U14C A67G A142G	0.85
U5C C68G U85C A107G	0.09
U5C G49U U81C	0.8
U5C U15A C51U U112A A140G	0.54
U5A A31U A107G C123U A124G	0.42
G4A G74A A79G	0.83
U5A U20G G72A U91C U115C	0.21
U5C U46C U119C	1.95
A6G C38A U39C U47A	0.42
G4A U15C A30G A79U	1.15
